Source: ChEMBL document CHEMBL4888484, “Replenishing the malaria drug discovery pipeline: Screening and hit evaluation of the MMV Hit Generation Library 1 (HGL1) against asexual blood stage Plasmodium falciparum ,using a nano luciferase reporter read-out” (2022)
In all, about 150,000 compounds went through this assay and about 540 (0.36%) showed an effect of 50% or more. The list shows a part of the results.

tested on: Plasmodium falciparum; assay: Primary screen in NF54 nanoGlo assay, in single point, at 2uM, 72h; a lower Z score goes with more inhibition; format: functional, Erythrocyte; details: timepoint 72 hour

SMILES | % Inhibition [%] | Z score
CN1CN(Cc2nsc(N(C)C)n2)CC1=O | 2 | -0.3
CCOCc1nc(CCc2c(C)n[nH]c2C)n(C)n1 | -9 | 1.54
Cc1cnc([C@H]2CCCN(C(=O)c3noc4c3CCCC4)C2)s1 | -9 | 1.41
C=C[C@@H]1CCCCN1C(=O)CC(F)(F)F | -17 | 1.67
Cc1ccc(C(=O)NC[C@@H](CO)CC2CCCCC2)cn1 | -17 | 2.19
O=C(c1nc2ccc(Cl)cn2c1CN1CCC[C@H]1CO)N1CCCCCCC1 | -2 | 0.24
COCCN(Cc1nccs1)C(=O)NC[C@H](C)N1CCN(C)CC1 | -1 | 0.25
COc1ccc(-c2cc3ncc(C(=O)c4cc(Cl)ccc4O)cn3n2)cc1 | 46 | -5.26
CN(C)c1ccc(NC(=O)C2CN(S(C)(=O)=O)C2)cc1 | -21 | 3.3
CCCCOC(=O)N1CCC2(CCC(=O)N(CCc3c[nH]cn3)C2)CC1 | -7 | 0.95
COC[C@H](C)NC(=O)Nc1ccc(Cl)c(C#N)c1 | -11 | 0.97
COC[C@H]1CCCN1C[C@@H]1OC[C@H](NC(=O)CC(C)(C)C)[C@H]1O | 33 | -3.68
O=C(NCCOCC(F)(F)F)c1nc(-c2ccccc2)ns1 | 16 | -2.12
COC(=O)N1CCc2ccc(Br)cc2[C@@H]1C(=O)Nc1cccc(C(C)=O)c1 | -5 | 0.81
Cc1nc(CC(C)C)c(NC(=O)C2CC(C)(O)C2)s1 (stereo not given) | -8 | 1.6
COc1ccc(-c2oncc2C(=O)NC[C@H]2CCCN3CCCC[C@@H]23)cc1 | 8 | -1.11
O=C(c1ccc(S(=O)(=O)N2CCCCC2)cc1)N1CCC[C@H]1c1nc2ccccc2s1 | 5 | -0.65
C[C@H](OC(=O)Cn1cnc2c1c(=O)n(C)c(=O)n2C)C(=O)Nc1ccc(F)cc1 | -10 | 0.99
O=C(Cn1ncc2ccc(Cl)cc21)NC1CCCCC1 | -10 | 1.43
O=C1C2C(C(=O)N1Cc1ccc(F)cc1)C1C=CC2C12CC2 (stereo not given) | -5 | 0.65
CC(=O)Nc1[nH]c(-c2ccccc2)cc1C(C)=O | -11 | 2.07
C[C@H]1CCCN(Cc2cccc(C(=O)Nc3cnn4c3NCCC4)c2)C1 | -16 | 2.81

SMILES | % Inhibition [%] | Z score
C#Cc1cccc(NCc2cnc3cnccn23)c1 | -15 | 2.43
Cc1csc2nc(Cn3cc(S(=O)(=O)N(C)C)cn3)cc(=O)n12 | -4 | 0.58
CCn1cnnc1[C@@H]1CCCCN1S(=O)(=O)c1cccc(OC)c1 | -17 | 1.95
Cc1ccc(NC(=O)c2coc(NC(=O)c3ccsc3)n2)cc1F | -1 | 0.09
COCC(=O)Nc1ccn2nccc2c1 | -11 | 1.75
O=C(CC1CCCCC1)N1CC[C@H](Cc2nnc(C3CC3)[nH]2)C1 | -3 | 0.43
Cn1c(=O)c2ccn(CC(=O)NCc3ccccc3)c2n(C)c1=O | -16 | 1.61
O=C(Cc1ccc(F)cc1)N[C@@H](Cc1ccccc1)c1nnc(N2CCCCC2)o1 | 9 | -0.98
CC(C)c1noc([C@H]2CC(=O)N(c3ccc4c(c3)CCC4)C2)n1 | 0 | 0.05
CCn1nc(C)cc1-c1cn2c(n1)CCCC2 | -12 | 1.71
CC(C)(C)c1ccc(C(=O)NCC2CCCC2NS(C)(=O)=O)s1 (stereo not given) | -4 | 0.62
OCC1CC(N[C@H](c2ccc(F)cc2)c2ccc(Cl)s2)C1 (stereo not given in full) | -3 | 0.46
C=CCN=C(NCCCS(=O)(=O)Cc1ccccc1)N1CCCC1 | -9 | 1.22
Cn1cc(CCNC(=O)N(Cc2cccnc2)C2CCCCC2)cn1 | 3 | -0.62
Cc1cncc(C(=O)N2CCN(Cc3ccccn3)[C@@H]3CS(=O)(=O)C[C@@H]32)c1 | 2 | -0.27
O=C(O)c1ccc2c(c1)C(=O)N(c1cnc(-c3ccccc3)s1)C2=O | -4 | 0.8
Cc1cc(C(=O)NCc2nc(C)c(C(=O)O)s2)c(C)s1 | 0 | 0.02
Cc1ccc(OCC(=O)NCc2ccccc2)c(-n2cnnc2)c1 | -14 | 1.84
NS(=O)(=O)N1CCN(C(=O)CC2Cc3ccccc3C2)CC1 | -16 | 2.09
CO[C@@H](CNC(=O)CC1CC1)c1ccc(F)cc1 | -5 | 0.74
CCCOc1nc(C)ccc1C(=O)NC | -13 | 1.8
O=C(NCCCn1ccnc1)C1CCC1 | -12 | 2.2

SMILES | % Inhibition [%] | Z score
Cc1cccc(OCC(=O)N2CCN(c3nnc(-c4ccon4)s3)CC2)c1C | -10 | 0.84
CCC[C@H]1CN(CC(=O)NC(C2CC2)C2CC2)CCN1CC(=O)NC(C1CC1)C1CC1 | -15 | 2.15
CC(C)OC[C@@H](O)CN(Cc1c(-c2ccccc2)nn(C)c1Oc1ccc(Cl)cc1)CC1CC1 | -3 | 0.27
NCC1(C(=O)Nc2nc(C3CC3)c(Cc3ccccc3F)s2)CCOCC1 | 0 | 0
Cc1ccc(Br)c(C(=O)NCCc2nc(C)no2)n1 | -4 | 0.75
COc1ccccc1OCCn1c(C)cc(C(F)(F)F)cc1=O | 4 | -0.83
CCN(Cc1noc(CC(C)C)n1)C(=O)CCc1nc2ccccc2[nH]1 | 3 | -0.57
N#Cc1ccc(C(=O)N2C[C@@H]3CC[C@H]2CN(Cc2ccccc2)C3)cc1 | -14 | 1.83
O=C(O)c1ccc(-c2n[nH]c(=O)c3c2CCCC3)cc1 | 31 | -4.53
Oc1ccc([C@@H](c2cn(-c3nc(-c4ccc(Cl)cc4)cs3)nc2-c2ccccc2)c2c(-c3ccccc3)nn(-c3nc(-c4ccc(Cl)cc4)cs3)c2O)cc1 | 34 | -0.91
Cc1cccc(-n2nc(C)nc2CNC(=O)N(C)C)c1 | -14 | 1.5
O=S1(=O)CCc2nnc(-c3cccc(OC(F)F)c3)n2CC1 | 13 | -1.63
CCOC(=O)N1CCC(NC(=O)c2ccc(O)nc2)CC1 | -3 | 0.48
Cc1nc(N2CCN(C)CC2)cc(N2CCN(C(=O)Cc3ccccc3)CC2)n1 | 0 | -0.04
Cc1nc2ccncc2cc1C(=O)N1CCN(C)C(=O)C1 | -1 | 0.08
CN(C)[C@@H](CN=C1CCCCCN1)c1ccccc1 | -6 | 1.17
Nc1ccnc(COc2ccc(OCC(F)(F)F)cc2)n1 | 15 | -2.06
Cc1cc(F)c(Br)cc1NC(=O)CCc1nnc[nH]1 | 2 | -0.23
O=C1COc2ncc(C(=O)N3CCCC[C@H]3c3noc(C4CC4)n3)cc2N1 | 2 | -0.29
Cc1ccc(-n2nc3c(=O)n([C@@H](C)C(=O)NCc4cccc(C)c4)nc(C)c3c2C)cc1 | 14 | -1.67
CC(C)C(=O)N1CCN(C(=O)c2ccc(F)c(F)c2)[C@H]2CS(=O)(=O)C[C@H]21 | -6 | 0.9
O=C1C[C@@H](C(=O)Nc2cccc(Cl)c2)n2ncc(-c3ccc(F)cc3)c2N1 | 2 | -0.28

SMILES | % Inhibition [%] | Z score
CN1CCO[C@H](CNC(=O)N[C@H]2CCOC2)[C@H]1c1cnn(C)c1 | -4 | 0.84
CCc1onc(C)c1[C@@H]1CCCN1C(=O)Nc1cccc(OC)c1 | -1 | 0.13
Cc1nc(N2CCN(C)CC2)cc(N2CCN(C(=O)c3c(F)cccc3F)CC2)n1 | -29 | 2.59
CCN(CC(=O)Nc1c(F)cccc1F)C(=O)Cc1csc(-c2ccccc2)n1 | -16 | 3.23
CCc1nn(C)c(=O)c2cc(S(=O)(=O)NCc3ccc(F)cc3Cl)cn12 | 2 | -0.23
CN(Cc1c[nH]cn1)S(=O)(=O)CCc1cccc(Cl)c1 | 5 | -0.64
COc1ccc2c(c1)OC(C)(C)CN(C(=O)Nc1ccncc1C)C2 | 1 | -0.15
Cc1n[nH]c(C)c1-c1nc(C(F)(F)F)nn1C | -6 | 0.62
Cc1nc([C@@H]2CCCN2c2c(C#N)c(=O)n(C)c(=O)n2C)no1 | -29 | 3.42
CC(C)COC(=O)Nc1cccc(NC2CCOCC2)c1 | -8 | 0.79
Cc1ccccc1-n1nc(C(=O)N2CCN(c3ccc(F)cc3)CC2)nc1-c1ccccc1 | -2 | 0.29
Cc1cccnc1NS(=O)(=O)c1ccc2c(c1)CCN2 | -31 | 3.65
COCc1noc(Cn2ccnc2C(C)C)n1 | -8 | 1.56
Cc1cc(Br)cc(S(=O)(=O)N(C)C(C)(C)C#N)c1 | -12 | 1.4
CCc1nnsc1C(=O)NC1CC(C)N(C2CC2)C1 (stereo not given) | -5 | 0.41
CCc1cc(-c2n[nH]c(N)c2-c2nc(C)cs2)c(O)cc1OCc1ccccc1Cl | 7 | -1.06
CCOC(=O)c1oc(NC(=O)c2ccnc(C)c2)nc1C(F)(F)F | -9 | 1.22
OCC[C@H]1CN(c2ncnc3[nH]ccc23)CCN1CCc1ccccc1 | -9 | 1.17
Cc1c(Cl)cccc1-n1ncnc1CCN1CCCC1=O | -11 | 0.99
